The record followed here is ChEMBL document CHEMBL4888484, “Replenishing the malaria drug discovery pipeline: Screening and hit evaluation of the MMV Hit Generation Library 1 (HGL1) against asexual blood stage Plasmodium falciparum ,using a nano luciferase reporter read-out” (2022).

Among all 150,000 compounds or so, about 540 (0.36%) showed an effect of 50% or more. This is one part of the list.

This assay has as its system Plasmodium falciparum. Kind of assay: Primary screen in NF54 nanoGlo assay, in single point, at 2uM, 72h; a lower Z score goes with more inhibition. In kind it is functional, Erythrocyte. The settings on record: timepoint 72 hour.
`O=C(C1CCN(c2ncnc3[nH]cnc23)CC1)N1CCc2nc[nH]c2C1`: the “% Inhibition” value is listed as -3% and the Z score is 0.37.

Take `COCCN1C[C@@H](Cc2ccc(S(C)(=O)=O)cc2)CC1=O`: the “% Inhibition” value came out at 13% and the Z score is -1.66.

Consider `COc1ccc2c(c1)N1CCN(Cc3ccc(Cl)cc3)CC1C(C(=O)NCc1ccccc1F)C2` (centres undefined), for which the “% Inhibition” value amounted to 1% and the Z score is reported as -0.18.

`CS(=O)(=O)N1CCN(c2ncnc3cc(Cl)ccc23)CC1`: the “% Inhibition” value was determined as 7% and the Z score is -0.78.

Turning to `CC1CC(C)CN(C(C)CNC(=O)c2cc(-c3ccccc3)nc3ccccc23)C1` (centres undefined), the “% Inhibition” value is -10% and the Z score is 1.36.

On to `CCN(CC(=O)NC(C)C)Cc1cccc(C(=O)OC)c1`, for which the “% Inhibition” value is 3% and the Z score is -0.46.

With `C=CCNC(=O)Cn1c(-c2ccccc2)nn(-c2ccc(Cl)cc2)c1=O`, the “% Inhibition” value is -14% and the Z score was found to be 1.34.

For the compound `CC(C(=O)NC(=O)NC1CC1)N1CCC2CCCCC2C1` (centres undefined), the “% Inhibition” value is reported as -11% and the Z score amounted to 1.42.

On to `O=C(c1cccc2cc[nH]c12)N(CC1CC1)C1CC1`, for which the “% Inhibition” value is recorded as 36% and the Z score is -1.08.

`O=C(Cn1cnc2c1CCCC2)N1CCN(Cc2ccccc2)CC1`: the “% Inhibition” value is reported as -15% and the Z score worked out at 2.05.

With `Cc1cc(C)c(S(=O)(=O)N2CCC3(CC2)NCCN=C3NC2CCCC2)c(C)c1`, the “% Inhibition” value is given as 5% and the Z score is on record as -0.91.

In the case of `CC1CN(C(=O)c2cc(=O)[nH]c3cc(F)ccc23)CC1N(C)C` (centres undefined), the “% Inhibition” value came out at 11% and the Z score is reported as -1.53.

Consider `Cc1ccc(-n2c(N(C)C)nc(CN3CCC(n4cncn4)CC3)c2Cl)cc1`, for which the “% Inhibition” value is listed as -12% and the Z score is listed as 1.41.

In the case of `CC(C)c1nc2ccc(C(=O)NCc3ccccc3Cl)cc2o1`, the “% Inhibition” value is -24% and the Z score worked out at 2.24.

For the compound `O=C(NC1CCCCC1)N(Cc1ccc(F)cc1)c1ccc(C2c3ccccc3Oc3ccccc32)cc1`, the “% Inhibition” value came to 9% and the Z score is given as -1.15.

On to `COCCN1C[C@@H](C(=O)N2CCN(S(=O)(=O)c3ccc(C)cc3)CC2)CCC1=O`, for which the “% Inhibition” value was -8% and the Z score is recorded as 1.14.

As to `Cc1nc2c(c(N3CCN(c4c(N)c(C)nn4C)CC3)n1)CCCC2`, the “% Inhibition” value amounted to 7% and the Z score is reported as -1.3.

`CN(C)c1ccc(CNn2cnnc2)cc1`: the “% Inhibition” value is on record as -9% and the Z score amounted to 0.76.

As for `CN(C)[C@H]1CN(Cc2cc(C(C)(C)C)[nH]n2)C[C@@H]1C1CC1`, the “% Inhibition” value is listed as -21% and the Z score is on record as 2.73.

In the case of `CN1CCCN(S(=O)(=O)Cc2ccccc2)c2cc(F)ccc21`, the “% Inhibition” value is 16% and the Z score is -1.79.

For `CCn1c(=O)c(N2CCC[C@H](C(=O)NCc3ccccc3OC)C2)nc2cccnc21`, the “% Inhibition” value worked out at 35% and the Z score is on record as -5.13.

With `COc1cc2c(cc1OC)CN(C(=O)CN1CCc3[nH]ncc3C1)CC2`, the “% Inhibition” value is 4% and the Z score is given as -0.57.

With `O=C(N[C@H]1CCCc2ccccc21)c1ccsc1`, the “% Inhibition” value is 7% and the Z score is -0.86.

Turning to `CCCN1CCC(NC(=O)c2ccc(-c3ccco3)nc2C)CC1`, the “% Inhibition” value is -7% and the Z score is 1.24.

Turning to `CCn1cc(CN2CC[C@H](CNC(=O)c3ncccc3O)C2)cn1`, the “% Inhibition” value is on record as -15% and the Z score was 2.31.

Take `O=C(Cn1ncc2c([nH]c3ccccc32)c1=O)Nc1ccccn1`: the “% Inhibition” value is recorded as 1% and the Z score is -0.09.

Consider `O=C(C1CCC1)N1CC(n2cc(-c3ccccc3)nn2)C1`, for which the “% Inhibition” value is on record as -17% and the Z score came to 2.14.

Take `COC(=O)c1ccc(C(=O)N2CCC(C(=O)N3CCCCCC3)CC2)cc1`: the “% Inhibition” value is -8% and the Z score is listed as 1.02.

Turning to `CN(Cc1nnn(C)n1)C1CCN(Cc2ccccc2)CC1`, the “% Inhibition” value is listed as -3% and the Z score was 0.59.

On to `CC(C)CC1(CNC(=O)[C@@H]2CCCC[C@@H]2C(=O)N2CCCC2)CCC1`, for which the “% Inhibition” value is reported as -9% and the Z score was 0.98.

Turning to `O=C(Cn1cnc2ccccc21)N1CCN(c2ncccn2)CC1`, the “% Inhibition” value is recorded as -19% and the Z score is 2.76.

Regarding `Cc1nn(C2CCCCC2)c2nc(C3CCOCC3)[nH]c12`, the “% Inhibition” value is -9% and the Z score was 1.23.

On to `Cc1cn2c(C(=O)N3CCC[C@H]3c3nc(C(C)C)no3)csc2n1`, for which the “% Inhibition” value was -27% and the Z score amounted to 2.42.

As to `CCc1cc(NC(=O)c2cncs2)nn1C`, the “% Inhibition” value is recorded as -9% and the Z score is given as 0.9.

With `CCCN(Cc1ccccc1)c1nnc(-c2ccccc2)n1C`, the “% Inhibition” value is listed as -42% and the Z score turned out to be 4.91.

As to `O=C(Nc1c(F)cccc1OCc1ccccc1)N1CC[C@H](O)C1`, the “% Inhibition” value is recorded as -1% and the Z score worked out at 0.14.

In the case of `CCCn1c(NCc2cc(Cl)cc(Cl)c2O)nc2ccccc21`, the “% Inhibition” value is listed as 32% and the Z score is -3.61.

`CC(C)c1nccn1Cc1cc(C(=O)N[C@H]2CCCNC2=O)n[nH]1`: the “% Inhibition” value is -21% and the Z score is 2.2.

For the compound `CCCN1CCC(N[C@@H]2CC[C@@H]2NC(=O)C2=Cc3ccccc3OC=C2)CC1`, the “% Inhibition” value turned out to be 7% and the Z score is on record as -1.07.

As to `Cc1n[nH]c(CN2CCC[C@H]2c2nccs2)c1Cl`, the “% Inhibition” value is given as 11% and the Z score is -1.43.

Consider `CCCNC(=O)N1CCc2cn(C)c3cccc(c23)C1`, for which the “% Inhibition” value is given as -15% and the Z score turned out to be 1.47.

Take `O=C(COCc1ccccc1)N1CCCn2nc([C@@H](O)C3CC3)cc2C1`: the “% Inhibition” value was determined as 2% and the Z score is -0.47.

For orientation: % Inhibition means the drop in the measured response relative to a control, in per cent.
